# PubChem BioAssay AID1347043 (National Center for Advancing Translational Sciences (NCATS), 2019)
# Hit rate of the full screen: of about 76,000 compounds, about 1,900 (2.5%) were called active. The inconclusive results got no clear call from the source; some entries with a clear call stand among them for comparison. Calls come from the whole dose curve; as a rule, active = well fitted inhibition curve with a large enough effect; inconclusive = small, poorly fitted or top-dose-only effect; inactive = flat fitted curve, though single readings scatter. Potencies beside an inconclusive call are fits to weak or partial responses and may not hold up.
# Target: Luciferin 4-monooxygenase (Photinus pyralis) (UniProt P08659)
# Test: Firefly luciferase inhibition profiling of diverse chemical library using quantitative high-throughput screening; note: nearly all actives have a fitted effect of over 65% in size
# Conditions: purified P. pyralis luciferase, luminescence, biochemical; activity change, negative = inhibition: at 115 µM (top of the series) unless noted
# Summary of the method: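 Cell-free enzyme assay, 10nM P. pyralis luciferase, luciferin and ATP each at 10uM. Inhibition profiled over a 6-point titration, read as luminescence.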
# % is set by controls: 0 for no effect and ±100 for the full control effect; potency is the fitted concentration of half-maximal effect; tags give direction and shape of the fitted curve.
# Sequence of UniProt P08659 (P08659 whole entry, looked up): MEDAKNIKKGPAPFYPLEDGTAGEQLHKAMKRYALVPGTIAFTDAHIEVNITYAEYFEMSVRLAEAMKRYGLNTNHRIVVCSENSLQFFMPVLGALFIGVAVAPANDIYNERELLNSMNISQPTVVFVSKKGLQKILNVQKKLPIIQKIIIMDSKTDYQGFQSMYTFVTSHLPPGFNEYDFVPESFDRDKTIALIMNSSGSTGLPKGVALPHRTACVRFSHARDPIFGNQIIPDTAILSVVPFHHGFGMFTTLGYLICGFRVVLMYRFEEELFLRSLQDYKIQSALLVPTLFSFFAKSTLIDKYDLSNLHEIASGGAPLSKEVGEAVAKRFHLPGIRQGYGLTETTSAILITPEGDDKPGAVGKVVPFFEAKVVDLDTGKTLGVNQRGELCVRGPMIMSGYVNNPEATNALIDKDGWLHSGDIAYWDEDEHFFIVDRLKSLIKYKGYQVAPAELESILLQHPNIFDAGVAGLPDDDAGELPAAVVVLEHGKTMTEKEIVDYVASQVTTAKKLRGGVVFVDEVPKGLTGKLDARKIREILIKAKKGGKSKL
Structure (SMILES),"activity change, negative = inhibition",Potency
COc1ccc(CNC(=O)c2c(C)noc2-c2cc(OC)cc(OC)c2)cc1,inactive: 1.54%,
Cc1ccc(-c2cc3c(=O)n(CCNC(=O)c4ccc5ccccc5n4)ccn3n2)cc1C,,"inconclusive: 10 µM [inhibitor, full curve]"
Cc1ccc(C2=NC3(CCN(C(=O)c4cccc(C)c4)CC3)ON2)cc1,,"inconclusive: 44.7 µM [inhibitor, partial curve]"
CCn1ncc(CN2CCCC(C(=O)N3CCN(c4ccccn4)CC3)CCNC(=O)CC2)c1C (stereo unspecified),inactive: 8.66%,
CCOc1ccc(NC(=O)N2c3ccccc3CC2c2nc(C3CC3)no2)cc1 (stereo unspecified),,"inconclusive: 28.2 µM [inhibitor, partial curve, poor fit]"
CCc1cc(CNC(=O)c2cc(Cn3c(C)nc4ccccc43)[nH]n2)on1,inactive: -0.393%,
O=C(Cc1ccsc1)Nc1cnc(-c2ccccc2)nc1,,active: 5.01 µM
CS(=O)(=O)N1CCc2ccc(C(=O)Nc3ccc(Cl)c(C(F)(F)F)c3)cc21,,active: 17.8 µM
Cc1ccc(NC(=O)N2CCC(CCNC(=O)c3sccc3C)CC2)cc1,,"inconclusive: 39.8 µM [inhibitor, partial curve]"
CCOc1ccc(C(=O)N2CC(c3nnc(C(C)C)o3)C3(CCOCC3)C2)cc1 (stereo unspecified),inactive: -11.2%,
CCOc1ccc(NC(=O)c2ccc(Cn3ccn4nc5c(c4c3=O)CCCC5)cc2)cc1,inactive: -4.89%,
Cn1nc(C(=O)N2CCCC(CNC(=O)c3ccc(-c4ccccc4)cc3)C2)ccc1=O (stereo unspecified),,"inconclusive: 56.2 µM [inhibitor, partial curve]"
CC(C)c1cc(C(=O)N2CCn3nc(C(=O)Nc4ccccc4)cc3C2)n[nH]1,,"inconclusive: 44.7 µM [inhibitor, partial curve]"
Cc1ccc(-c2cc3c(=O)n(CCNC(=O)c4ccccc4F)ccn3n2)cc1C,,active: 2 µM
COC(=O)C(=O)N[C@H]1C[C@@H](Cc2cc(-c3ccccc3)on2)C1(C)C,,"inconclusive: 126 µM [inhibitor, single point]"
COc1cccc(CN2CCNc3cc(Nc4ccccc4)ncc3C2)c1,,active: 5.62 µM
Cc1ccc(-n2cc(CN3CCN4CCCC4C3)c(-c3cccc(C)c3)n2)cc1 (stereo unspecified),,"inconclusive: 44.7 µM [inhibitor, partial curve]"
O=C([C@@H]1C[C@@H](O)[C@H](O)[C@@H]2NC(=S)N(c3ccc(Cl)cc3)[C@@H]21)N1CCCCC1,,active: 50.1 µM
COc1cccc(NC(=O)c2ccc3c(c2)N(C)C2CCCCN2C3=O)c1 (stereo unspecified),,"inconclusive: 50.1 µM [inhibitor, partial curve]"
CC(C)N1CCn2nc(C(=O)NCCc3ccc(Cl)cc3)cc2C1,,"inconclusive: 79.4 µM [inhibitor, single point]"
O=c1c2c(CO)c(-c3ccccc3)nn2ccn1Cc1ccccc1F,,"inconclusive: 39.8 µM [inhibitor, partial curve]"
Cc1cc(OC2CN(Cc3ccnn3C)C2)ccc1F,inactive: -2.93% [at 172 µM],
Cc1cccc(-c2nc3cnccn3c2NCCC(=O)NCc2ccc(F)c(Cl)c2)c1,,"inconclusive: 44.7 µM [inhibitor, partial curve, poor fit]"
COc1cc(CN2CCc3nc(N(C)C)[nH]c(=O)c3CC2)cc(OC)c1OC,inactive: -5.26%,

Structure (SMILES),"activity change, negative = inhibition",Potency
CCN1CC2(CCC1=O)CCN(C(=O)c1ccc(OC)c(Cl)c1)CC2,inactive: 0.965%,
COc1cccc(-c2cc(C3CCN(C(=O)Nc4ccccc4OC)CC3)[nH]n2)c1,inactive: -7.69%,
Cc1cccc(-c2nocc2CCC(=O)NC2CCN(Cc3ccccc3)CC2)c1,,active: 31.6 µM
Cc1cc(-c2cc3c(cn2)CN(Cc2cccs2)CCN3)ccn1,,active: 6.31 µM
O=C1NCCCCCCN(C(=O)NCc2ccccc2)[C@H]2CCCC[C@@H]12,inactive: -9.08%,
CC(=O)NC1(C)CN(Cc2ccc(-c3ccc(Oc4ccccc4)cc3)s2)C1,,active: 12.6 µM
COc1ccc(CN2Cc3[nH]cnc3C[C@H]2c2nc(-c3ccc4ccccc4c3)no2)cc1,inactive: -22%,
CC(C)Cn1ccc2c(NC(=O)CC[C@H]3NC(=O)c4ccccc4NC3=O)cccc21,,"inconclusive: 44.7 µM [inhibitor, partial curve]"
O=C(NCc1ccc(-c2ccccc2)cc1)[C@H]1CCC[C@H](O)C1,,"inconclusive: 39.8 µM [inhibitor, partial curve]"
O=C(c1ccc[nH]1)N1CCCC(n2cc(-c3nc(-c4ccccc4)no3)nn2)C1 (stereo unspecified),,"inconclusive: 50.1 µM [inhibitor, partial curve]"
O=C1COc2ccc(-c3cn[nH]c3)nc2CN1Cc1ccccc1,inactive: -10.8% [at 172 µM],
O=C(NCCN1CCCC1)c1ccc(-c2ccc(N3CCSCC3)nc2)cc1,,active: 14.1 µM
COc1ccc(Nc2ncc(-c3ccccc3OC)c3c2OCC3)cc1,,"inconclusive: 35.5 µM [inhibitor, full curve]"
CCCc1noc(-c2ccn3c(CNC(=O)c4cccc(N(C)C)c4)nnc3c2)n1,,"inconclusive: 50.1 µM [inhibitor, partial curve]"
Cc1ccc(Cn2cccc2-c2nc(-c3ccc(F)cc3)no2)cc1,,"inconclusive: 12.6 µM [inhibitor, full curve]"
COc1ccc(-c2noc([C@@H]3C[C@@H](O)CN3Cc3ccc(C)cc3)n2)cc1,,"inconclusive: 50.1 µM [inhibitor, partial curve]"
CSc1ccc(-c2ccc3c(c2)C(=O)N2CCN(C(=O)CCC(=O)O)C[C@@H]2C(=O)N3)cc1,,"inconclusive: 31.6 µM [inhibitor, partial curve]"
CN1CCN(c2ccc(-c3cc4c(ccn4C)c(C(=O)NCc4cccnc4)n3)cc2)CC1,,"inconclusive: 1.41 µM [inhibitor, full curve]"
COc1ccc(-c2cc3c(=O)n(CCNC(=O)c4c(F)cccc4Cl)ccn3n2)cc1,,active: 3.16 µM
CC(C)c1ccc(C(=O)N2CCc3[nH]nc(C(=O)NCCCc4ccccc4)c3C2)cc1,inactive: -4.46%,
Cc1cccc(NC(=O)N2C[C@@H](F)C[C@H]2C(=O)N2CCc3ccccc3C2)c1,,"inconclusive: 35.5 µM [inhibitor, partial curve]"
COc1ccc(-c2ccc(COc3ccc4c(cnn4CCC(=O)O)c3)cc2)c(C)c1,,"inconclusive: 63.1 µM [inhibitor, full curve]"
O=C(c1ccc2c(c1)OCO2)N1CCC(n2cc(-c3nc(-c4ccccc4)no3)nn2)CC1,,"inconclusive: 100 µM [inhibitor, single point]"
O=C([C@@H]1C[C@H](Oc2cccnc2)CN1C(=O)CCc1ccccc1)N1CCCC1,inactive: -4.25%,

Structure (SMILES),"activity change, negative = inhibition",Potency
CSc1cccc(NC(=O)Nc2cccc(-c3ccc(N4CCCC4)nn3)c2)c1,,active: 1.78 µM
O=C(c1cccs1)N1CCC(Oc2cccnc2)C1 (stereo unspecified),inactive: 0%,
COc1cccc(-c2noc(CC3CCN(C(=O)c4cc(OC)c(OC)c(OC)c4)CC3)n2)c1,inactive: -12.3%,
CCC(C)(C)C(=O)N[C@@H]1CN(c2ccncn2)C[C@H]1CO,inactive: -8.84%,
CCn1cc(CN2CCC(N3CC(OCCOC)C34CCCCC4)CC2)cn1 (stereo unspecified),inactive: -7.23%,
O=C(NCc1cccnc1)C1(CCO)CC12CCOCC2 (stereo unspecified),,active: 28.2 µM
O=C(c1ccncc1)N1CCCC(n2cc(-c3nc(-c4ccccc4)no3)nn2)C1 (stereo unspecified),,"inconclusive: 39.8 µM [inhibitor, partial curve]"
COc1ccc(F)c(CN2CCCC(O)(CN3CCC(C)CC3)C2=O)c1 (stereo unspecified),inactive: -7.16%,
COc1ccc(Nc2cnc3ccc(-c4ccc(OC)c(OC)c4)nn23)cn1,,"inconclusive: 56.2 µM [inhibitor, full curve]"
Cc1noc(C)c1-c1cc(-c2ccc(N3CCOCC3)nc2)cn2cncc12,,"inconclusive: 126 µM [inhibitor, single point]"
Cc1ccc(C(=O)Nc2cccc(-c3ccc(N4CCN(C)CC4)nn3)c2)cc1C,,active: 6.31 µM
Cc1cccc(NC(=O)C2CCN(C(=O)c3ncn4c3COC(c3ccccc3)C4)CC2)c1 (stereo unspecified),,active: 3.16 µM
Cc1nc(CC(=O)NC2CCCc3c2cnn3-c2ccc(C(C)(C)C)cc2)cs1 (stereo unspecified),,"inconclusive: 44.7 µM [inhibitor, partial curve]"
Oc1ccccc1-c1cnc2n[nH]c(-c3ccc4c(c3)OCO4)c2n1,,"inconclusive: 112 µM [inhibitor, partial curve, poor fit]"
Cc1c(CNC(=O)c2ccc3nc(-c4ccc(F)cc4)cn3c2)cnn1C,,active: 44.7 µM
Cc1cc2nc(CO[C@H]3CN(Cc4nccn4C)C[C@H]3F)[nH]c2cc1C,,"inconclusive: 50.1 µM [inhibitor, partial curve]"
O=C(c1cc2ccccc2[nH]1)N1CCCN(c2cc(-c3ccccc3)[nH]n2)CC1,,"inconclusive: 56.2 µM [inhibitor, partial curve, poor fit]"
CCO[C@H]1C[C@@H](O)C12CCN(C(=O)CCCc1ccccc1)CC2,,"inconclusive: 39.8 µM [inhibitor, partial curve]"
O=C(COc1ccc(F)cc1)N1CC(Oc2cccc(-c3nc(-c4ccccc4)no3)c2)C1,,"inconclusive: 14.1 µM [inhibitor, full curve]"
O=C(NCCOc1ccccc1)c1ccc2c(c1)OCCN(CCC(F)(F)F)C2,,active: 39.8 µM
CCCNC(=O)CCC1CCN(C(=O)c2ccc(C)cc2)CC1,,active: 31.6 µM
Fc1ccccc1-c1noc(-c2ncn3c2COC(c2ccccc2Cl)C3)n1 (stereo unspecified),,active: 15.8 µM
O=C(NC[C@H]1OC[C@@H](N(Cc2ncc[nH]2)Cc2ncc[nH]2)[C@@H]1O)c1ccccc1,,"inconclusive: 2.82 µM [inhibitor, full curve]"
